Source: PMC4336329 (PLoS ONE, 2015)
In all, about 310,000 compounds went through this assay and about 2,200 (0.71%) showed an effect of 50% or more. Effects have a minus sign here. Some of the results follow.

target: human ether-à-go-go-related gene (hERG) potassium channel (human, UniProt Q12809); assay: primary screen, population patch clamp on CHO cells stably expressing hERG
Sequence (Q12809 whole entry, looked up): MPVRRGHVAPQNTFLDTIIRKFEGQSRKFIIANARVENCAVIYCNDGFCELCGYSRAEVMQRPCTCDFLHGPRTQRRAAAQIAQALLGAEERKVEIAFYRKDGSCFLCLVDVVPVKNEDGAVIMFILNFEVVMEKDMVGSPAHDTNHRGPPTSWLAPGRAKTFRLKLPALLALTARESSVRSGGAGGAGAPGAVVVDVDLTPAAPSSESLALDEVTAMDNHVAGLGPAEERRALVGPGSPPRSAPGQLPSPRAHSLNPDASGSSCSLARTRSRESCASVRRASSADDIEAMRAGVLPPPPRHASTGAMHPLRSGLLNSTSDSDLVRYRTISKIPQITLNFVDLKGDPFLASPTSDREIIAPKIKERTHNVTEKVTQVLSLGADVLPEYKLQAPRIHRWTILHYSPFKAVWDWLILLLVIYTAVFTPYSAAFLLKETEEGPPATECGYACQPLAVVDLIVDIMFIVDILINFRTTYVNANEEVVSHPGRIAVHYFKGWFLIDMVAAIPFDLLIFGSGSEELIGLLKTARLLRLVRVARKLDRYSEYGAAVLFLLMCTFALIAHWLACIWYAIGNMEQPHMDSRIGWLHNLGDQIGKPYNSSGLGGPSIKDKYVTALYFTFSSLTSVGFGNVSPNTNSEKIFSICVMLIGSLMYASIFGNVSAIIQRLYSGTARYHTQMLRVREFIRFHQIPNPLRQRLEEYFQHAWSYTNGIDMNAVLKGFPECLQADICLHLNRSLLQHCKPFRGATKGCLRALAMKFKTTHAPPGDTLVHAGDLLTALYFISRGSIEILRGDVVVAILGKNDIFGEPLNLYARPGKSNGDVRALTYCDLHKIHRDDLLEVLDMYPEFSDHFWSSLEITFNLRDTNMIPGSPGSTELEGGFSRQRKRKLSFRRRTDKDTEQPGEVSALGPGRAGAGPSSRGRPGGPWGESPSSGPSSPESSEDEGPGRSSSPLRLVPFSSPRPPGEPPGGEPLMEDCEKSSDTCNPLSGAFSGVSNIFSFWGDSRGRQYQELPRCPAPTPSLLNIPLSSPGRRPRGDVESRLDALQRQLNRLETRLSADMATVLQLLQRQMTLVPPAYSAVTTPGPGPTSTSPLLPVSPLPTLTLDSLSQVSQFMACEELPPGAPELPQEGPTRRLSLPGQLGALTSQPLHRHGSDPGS

SMILES	hERG current change (%, negative = inhibition) at 1uM
CCCN(CC(=O)Nc1ccccc1C)C(=O)c1cccc(S(=O)(=O)N2CCN(c3ccccc3)CC2)c1	-11.7%
CSc1ccccc1NC(=O)c1ccccc1N(C)S(C)(=O)=O	4.38%
CCC1(C)Cc2c(sc3nnn(CC(=O)Nc4cccc5ccccc45)c(=O)c23)CO1 (centres unmarked)	7.05%
COC(=O)c1cc(=O)n(Cc2cccs2)c(=Nc2ccccc2)s1	9.66%
CC(=O)c1cccc(NC2c3ccccc3C(=O)N2Cc2ccco2)c1 (centres unmarked)	1.85%
O=C(CCc1nc2ccccc2s1)N1CCN(c2ccccc2)CC1	5.17%
Cc1ccc(-c2nnc(COC(=O)c3ccco3)o2)cc1	10.5%
COc1cscc1C(=O)O	1.63%
CCc1ccc2c(CC(=O)Nc3nnc(C4CC4)s3)coc2c1.CN(C)C=O	-1.38%
CCCCn1c(=N)c(S(=O)(=O)c2ccc(Br)cc2)cc2c(=O)n3cccc(C)c3nc21	-1.27%
Cc1ccccc1C(=O)c1cccn1CC(=O)NCCCc1ccccc1	6.74%
C=CCc1cccc2cc(C(=O)NC3CCCCC3)c(=O)oc12	5.32%
Cc1ccc(C2=[N+]([O-])C3(CCCCC3=O)N(O)C2(C)C)cc1 (centres unmarked)	7.99%
CNS(=O)(=O)c1ccc2c(c1)oc(=O)c1cc(S(=O)(=O)NC)ccc12	8.57%
O=C(CNC(=O)c1cccc(Br)c1)NCCc1nc2ccccc2[nH]1	4.05%
O=C(NCCC(=O)N1CCCC1)c1ccccc1Cl	18.6%
CN(c1ccccc1)S(=O)(=O)c1ccc(C(=O)NCc2cccs2)cc1	8.18%
O=C(N/N=C/c1ccc(Cl)cc1Cl)c1ccc(-n2cnnn2)cc1	11.8%
COc1ccc(S(=O)(=O)N(C)C)cc1NCC(=O)Nc1ccc(F)cc1F	9.56%
CC(C)CN(C(=O)CCCSc1nc2ccccc2[nH]1)c1c(N)n(Cc2ccccc2)c(=O)[nH]c1=O	-14.8%
COc1cc([N+](=O)[O-])ccc1NC(=O)C1CCCN(S(C)(=O)=O)C1 (centres unmarked)	11.4%
CC(C)c1ccc(N2C(=O)CC(NNC(=O)c3cccnc3)C2=O)cc1 (centres unmarked)	14.5%

SMILES	hERG current change (%, negative = inhibition) at 1uM
COc1ccc(S(=O)(=O)N2CCN(c3ccc(F)cc3)CC2)cc1OC	13.6%
Cc1ccc(/C=N/NC(=O)Cc2cccn2C)cc1	2.63%
CCC1(CC)NC(=O)N(CC(=O)OCC(=O)Nc2ccccc2[N+](=O)[O-])C1=O	7.55%
CN(C)S(=O)(=O)N1CCCC(C(=O)c2ccc(C(F)(F)F)cc2)C1 (centres unmarked)	4.24%
O=C(c1cc(-c2cccc(Cl)c2)on1)N1CCCC1	7.75%
Cc1cccc(C(=O)NCC(=O)OCC(=O)N2CC3(C)CC2CC(C)(C)C3)c1 (centres unmarked)	-10.4%
C=CCn1c(COc2ccccc2)nnc1SCC(=O)C(C)(C)C	3.55%
O=C(Nc1ccccc1F)OC1CN2CCC1CC2 (centres unmarked)	11.5%
COc1ccc2c(c1)CCc1cn[nH]c1-2	17%
O=C(NCc1ccco1)C1CCN(c2nc3ccccc3n2Cc2ccccc2F)CC1	-62.8%
Cn1c(=O)c2c(nc(CN3CCN(c4ccc(F)cc4)CC3)n2Cc2ccccc2F)n(C)c1=O	-1.72%
CN1CCC(N(C)C(=O)c2ccccc2F)CC1.Cl	19.3%
Cc1nn(C2CCCO2)c(=O)nc1N (centres unmarked)	21.5%
COc1ccc(CCNC(=O)CSc2nc3ccccc3o2)cc1OC	12.1%
Cl.O=C(NCCOC(=O)c1ccccc1C(=O)OCCNC(=O)c1cccnc1)c1cccnc1	13.7%
CC(=O)Nc1ccc(S(=O)(=O)Nc2c(NC3CCCCC3)c3ccccc3oc2=O)cc1	11.6%
COc1cc(CN2CCN(c3ccccc3F)CC2)cc(OC)c1O	2.78%
O=C(Nc1ccccc1C(=O)Nc1ccc(Br)cn1)c1cccc([N+](=O)[O-])c1	15%
CN1CCN(C(=O)Nc2ccc([N+](=O)[O-])cc2)CC1	-2.87%
O=C(O)c1cc(NC(=O)c2ccccc2F)cc(NC(=O)c2ccccc2F)c1	10.9%
FC(F)(F)c1cccc(-n2cccc2/C=N/n2cnnc2)c1	-7.64%
CCc1ccc(S(=O)(=O)NCCc2cn3ccc(C)cc3n2)s1	-10.8%
